# According to a collection of fitness landscapes (doi:10.1126/science.1257360):
# Some of the results follow.
# B1: PhoQ; a variant is named by its letters at X, in order, P23837 (parent)
# chain: MKKLLRLFFPLSLRVRFLLATAAVVLVLSLAYGMVALIGYSVSFDKTTFRLLRGESNLFYTLAKWENNKLHVELPENIDKQSPTMTLIYDENGQLLWAQRDVPWLMKMIQPDWLKSNGFHEIEADVNDTSLLLSGDHSIQQQLQEVREDDDDAEMTHSVAVNVYPATSRMPKLTIVVVDTIPVELKSSYMVWSWFIYVLSANLLLVIPLLWVAAWWSLRPIEALAKEVRELEEHNRELLNPATTRELTSLVRNLNRLLKSERERYDKYRTTLTDLTHSLKTPLXXLQXXLRSLRSEKMSVSDAEPVMLEQISRISQQIGYYLHRASMRGGTLLSRELHPVAPLLDNLTSALNKVYQRKGVNISLDISPEISFVGEQNDFVEVMGNVLDNACKYCLEFVEISARQTDEHLYIVVEDDGPGIPLSKREVIFDRGQRVDTLRPGQGVGLAVAREITEQYEGKIVAGESMLGGARMEVIFGRQHSAPKDE
# Variants of: B1
# Test: enrichment ratio after two sorts for PhoP signalling (ratio (wild type AVST 3.29)); higher = more functional
# Conditions: with PhoP (E. coli)
row,Variant,enrichment ratio
1,QPTH,≤ 0.25
2,VGPF,≤ 0.25
3,NNGI,≤ 0.25
4,LTSG,≤ 0.25
5,VNHC,≤ 0.25
6,DRHT,≤ 0.25
7,SNPE,≤ 0.25
8,VAAV,≤ 0.25
9,PTRP,≤ 0.25
10,ARIM,1.4
11,YHPT,≤ 0.25
12,TWFR,≤ 0.25
13,PIWR,≤ 0.25
14,TCST,24.9
15,IWVI,≤ 0.25
16,ASNR,≤ 0.25
17,YQRI,≤ 0.25
18,DPSM,≤ 0.25
19,KIRA,2.25
20,TRTQ,≤ 0.25
21,GVIR,≤ 0.25
22,RVYS,≤ 0.25
23,IEVI,≤ 0.25
24,LDPA,≤ 0.25

row,Variant,enrichment ratio
1,RRNT,≤ 0.25
2,PMAW,≤ 0.25
3,NWPR,≤ 0.25
4,FLEV,≤ 0.25
5,NIRY,≤ 0.25
6,NYIF,≤ 0.25
7,GHLS,≤ 0.25
8,LVIM,≤ 0.25
9,QYGI,≤ 0.25
10,PIPA,≤ 0.25
11,SDKL,≤ 0.25
12,VAYR,≤ 0.25
13,RVEH,≤ 0.25
14,NWRG,≤ 0.25
15,DVCN,≤ 0.25
16,KQNC,≤ 0.25
17,WSVA,≤ 0.25
18,PTTC,≤ 0.25
19,ALPF,≤ 0.25
20,AINA,≤ 0.25
21,PLFD,≤ 0.25
22,STPE,≤ 0.25
23,NYAS,≤ 0.25
24,DILC,≤ 0.25

row,Variant,enrichment ratio
1,MTMG,≤ 0.25
2,LAPI,≤ 0.25
3,YCYF,≤ 0.25
4,AWLA,1.75
5,EGIH,≤ 0.25
6,AVHH,≤ 0.25
7,SVAK,4.26
8,QTVS,≤ 0.25
9,FPKK,≤ 0.25
10,NDDA,≤ 0.25
11,HKYK,≤ 0.25
12,CNIL,≤ 0.25
13,MFIK,≤ 0.25
14,PFAD,≤ 0.25
15,KIRH,≤ 0.25
16,QSNV,≤ 0.25
17,DEFQ,≤ 0.25
18,HYTR,≤ 0.25
19,ADQT,≤ 0.25
20,VKCG,≤ 0.25
21,SFSF,≤ 0.25
22,EGCY,≤ 0.25
23,HAWF,≤ 0.25
24,HSRW,≤ 0.25

row,Variant,enrichment ratio
1,YPPR,≤ 0.25
2,LQRQ,≤ 0.25
3,KFYN,≤ 0.25
4,RQVT,≤ 0.25
5,TNCV,10
6,GLEN,≤ 0.25
7,RTRN,≤ 0.25
8,VHKH,≤ 0.25
9,DEES,≤ 0.25
10,DTTL,≤ 0.25
11,EPFI,≤ 0.25
12,KYCT,≤ 0.25
13,GYDW,≤ 0.25
14,KKLH,≤ 0.25
15,MALP,≤ 0.25
16,MPPR,≤ 0.25
17,YVPT,≤ 0.25
18,FGFK,≤ 0.25
19,SCPC,2.78
20,MNEI,≤ 0.25
21,LCRM,≤ 0.25
22,MISH,≤ 0.25
23,FSQD,≤ 0.25
24,VPIA,≤ 0.25

row,Variant,enrichment ratio
1,TQYT,0.906
2,WHIP,≤ 0.25
3,SSGH,7.6
4,LGNI,≤ 0.25
5,DKTA,≤ 0.25
6,NWMM,≤ 0.25
7,VGGH,≤ 0.25
8,SKPQ,≤ 0.25
9,YHFY,≤ 0.25
10,VKEC,≤ 0.25
11,KHPE,≤ 0.25
12,KEQL,≤ 0.25
13,RDWV,≤ 0.25
14,QPMT,≤ 0.25
15,FSWW,≤ 0.25
16,APIQ,≤ 0.25
17,QMDG,≤ 0.25
18,RRWK,≤ 0.25
19,QRGV,≤ 0.25
20,RNHY,≤ 0.25
21,NVYR,≤ 0.25
22,SWRN,≤ 0.25
23,FGSH,≤ 0.25
24,ESYS,≤ 0.25

row,Variant,enrichment ratio
1,TPFE,≤ 0.25
2,PAVF,≤ 0.25
3,KHNK,≤ 0.25
4,FAHM,≤ 0.25
5,ETLP,≤ 0.25
6,MNAE,8.04
7,RHTM,≤ 0.25
8,NWAW,≤ 0.25
9,VYSH,≤ 0.25
10,YGRD,≤ 0.25
11,KHPG,≤ 0.25
12,PYIR,≤ 0.25
13,GSLN,5.75
14,MVKH,≤ 0.25
15,MHCY,≤ 0.25
16,QGIR,≤ 0.25
17,TPEA,≤ 0.25
18,GPPG,≤ 0.25
19,LDQI,≤ 0.25
20,NCRN,≤ 0.25
21,TNAY,2.94
22,RGQF,≤ 0.25
23,DHMI,≤ 0.25
24,DGDY,≤ 0.25

row,Variant,enrichment ratio
1,WEDT,≤ 0.25
2,YYTP,≤ 0.25
3,MSIK,≤ 0.25
4,NHAW,≤ 0.25
5,IYFL,≤ 0.25
6,IPTQ,≤ 0.25
7,ARRE,≤ 0.25
8,SVLC,7.28
9,GHVC,≤ 0.25
10,LDRP,≤ 0.25
11,IMCH,≤ 0.25
12,PKRW,≤ 0.25
13,DAKC,≤ 0.25
14,AHNM,5.49
15,IKFH,≤ 0.25
16,MADT,≤ 0.25
17,HSFL,≤ 0.25
18,AKSI,22.7
19,DKKY,≤ 0.25
20,DEFK,≤ 0.25
21,VEKP,≤ 0.25
22,GTDT,≤ 0.25
23,GHKP,≤ 0.25
24,EKRV,≤ 0.25

row,Variant,enrichment ratio
1,DYAI,≤ 0.25
2,AHLQ,6.84
3,GYPH,≤ 0.25
4,YPYH,≤ 0.25
5,LTFC,≤ 0.25
6,IQIQ,≤ 0.25
7,EKIL,≤ 0.25
8,VDDY,≤ 0.25
9,IWQA,≤ 0.25
10,IEEC,≤ 0.25
11,HYQN,≤ 0.25
12,VCRK,≤ 0.25
13,MIRK,3.82
14,NHKL,≤ 0.25
15,PGGE,≤ 0.25
16,MGMT,≤ 0.25
17,WNVC,≤ 0.25
18,VCVC,≤ 0.25
19,NSAT,≤ 0.25
20,PSFQ,≤ 0.25
21,YKQF,≤ 0.25
22,WMGG,≤ 0.25
23,RHCG,≤ 0.25
24,DSKC,≤ 0.25

row,Variant,enrichment ratio
1,NIFH,≤ 0.25
2,AVLA,8.58
3,VDSL,≤ 0.25
4,NHLP,≤ 0.25
5,TNVW,≤ 0.25
6,NRPC,≤ 0.25
7,YDRS,≤ 0.25
8,WGSC,≤ 0.25
9,VRGL,≤ 0.25
10,WETR,≤ 0.25
11,TPLD,≤ 0.25
12,HGCH,≤ 0.25
13,VCNG,≤ 0.25
14,MGSL,9.47
15,VNLH,≤ 0.25
16,VLEK,≤ 0.25
17,HLGY,≤ 0.25
18,EFQQ,≤ 0.25
19,FMAH,≤ 0.25
20,GYHM,≤ 0.25
21,DSSW,≤ 0.25
22,MKRV,≤ 0.25
23,WGTL,≤ 0.25
24,SQCC,8.97

row,Variant,enrichment ratio
1,NCRK,≤ 0.25
2,STLN,14.8
3,MHKY,≤ 0.25
4,RDHN,≤ 0.25
5,YVAW,≤ 0.25
6,VGIP,≤ 0.25
7,NMLS,≤ 0.25
8,ITLM,8.61
9,QFTP,≤ 0.25
10,VMMT,≤ 0.25
11,KIPW,≤ 0.25
12,RDDF,≤ 0.25
13,ITFQ,≤ 0.25
14,ANTV,16.3
15,AMCT,5.79
16,LVMS,≤ 0.25
17,PMPF,≤ 0.25
18,HWNR,≤ 0.25
19,WFKN,≤ 0.25
20,IKPQ,≤ 0.25
21,VYFI,≤ 0.25
22,MVME,≤ 0.25
23,FTKR,≤ 0.25
24,PQSR,≤ 0.25

row,Variant,enrichment ratio
1,PLHG,≤ 0.25
2,WRCV,≤ 0.25
3,EFGL,≤ 0.25
4,INHY,≤ 0.25
5,EIAW,≤ 0.25
6,INHP,0.855
7,FENQ,≤ 0.25
8,HRMF,≤ 0.25
9,WHKA,≤ 0.25
10,DHPM,≤ 0.25
11,SWTF,≤ 0.25
12,TVPC,≤ 0.25
13,DNNT,≤ 0.25
14,MYMD,≤ 0.25
15,QGNY,≤ 0.25
16,AMWC,≤ 0.25
17,HLFN,≤ 0.25
18,SELP,≤ 0.25
19,KFIA,≤ 0.25
20,VGPI,≤ 0.25
21,AHFK,≤ 0.25
22,GKAC,≤ 0.25
23,TYQR,≤ 0.25
24,SVMG,5.71

row,Variant,enrichment ratio
1,EIWY,≤ 0.25
2,QQIY,≤ 0.25
3,VRNY,≤ 0.25
4,HWFN,≤ 0.25
5,IHNS,≤ 0.25
6,KEPC,≤ 0.25
7,KPML,≤ 0.25
8,DQKY,≤ 0.25
9,PSES,≤ 0.25
10,DQIQ,≤ 0.25
11,KPPY,≤ 0.25
12,MHWS,≤ 0.25
13,EGPE,≤ 0.25
14,PCTQ,≤ 0.25
15,PDFW,1.24
16,NYFT,≤ 0.25
17,HHCK,≤ 0.25
18,NRKD,≤ 0.25
19,NWPE,≤ 0.25
20,ERLD,≤ 0.25
21,FHNC,≤ 0.25
22,SPAT,≤ 0.25
23,VAMA,≤ 0.25
24,SFGG,≤ 0.25

row,Variant,enrichment ratio
1,EYWT,≤ 0.25
2,AGHP,≤ 0.25
3,YYAV,≤ 0.25
4,PYLK,≤ 0.25
5,SDNF,≤ 0.25
6,EAMN,≤ 0.25
7,HHSY,≤ 0.25
8,LITL,≤ 0.25
9,YRNW,≤ 0.25
10,VHMV,≤ 0.25
11,HNNI,≤ 0.25
12,ANMH,4.13
13,TMKP,≤ 0.25
14,VYVI,≤ 0.25
15,TVLD,≤ 0.25
16,QRYV,≤ 0.25
17,EPSA,≤ 0.25
18,HNHC,≤ 0.25
